These results are taken from patent US20180155419A1, “ANTI-MIF ANTIBODIES IN THE TREATMENT OF CANCERS CONTAINING MUTANT TP53 AND/OR MUTANT RAS” (Baxalta GmbH, priority 2015, published 2018).

One test deals with T1, oxMIF (Homo sapiens, UniProt P14174).
T1 sequence (P14174 1-115): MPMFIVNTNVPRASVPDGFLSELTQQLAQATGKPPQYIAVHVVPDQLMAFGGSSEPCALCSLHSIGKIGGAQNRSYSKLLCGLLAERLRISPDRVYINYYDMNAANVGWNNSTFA
The test is described as follows: Differential binding of anti-MIF antibodies to oxMIF (ELISA or Biacore surface plasmon resonance). The note with it: oxMIF (oxidized MIF). The procedure: (§1) The anti-oxMIF antibodies used in this invention are able to discriminate between ox and red MIF, which are generated by mild oxidation or reduction, respectively. The anti-oxMIF antibodies are useful to specifically detect oxMIF. Discrimination between these conformers is assessed by ELISA or surface plasmon resonance. Both techniques can be performed as well known to a person skilled in the art and as described below.
(§2) The antibodies were coated on a CM5 (=carboxymethylated dextran) chip and recombinant MIF protein, pre-incubated with 0.2% Proclin®300, were injected. (Proclin®300 consists of oxidative isothiazolones that stabilize the oxMIF structure).
(§3) A preferred method for the determination of binding is surface plasmon resonance of an antibody to e.g. rec. […] “Binding” and “specific binding” is used interchangeably here to denote the above.
For orientation: In an ELISA, binding on a coated surface is turned into a signal by an enzyme label.

For the next test, the target named is T2, redMIF (Homo sapiens, UniProt P14174).
T2 sequence (P14174 1-115): T1 sequence (P14174 1-115)
The test is described as follows: Differential binding of anti-MIF antibodies to redMIF / unmodified recombinant MIF (Biacore surface plasmon resonance). The conditions noted are these: reduced / unmodified MIF. As to the method:
as §1, §2, §3

A further test concerns ERK1/2. Description: Phosphorylation of ERK1/2 in starved PC3 cells (western blot). The format is cell-based, human. The note with it: starved PC3 cells (K-ras G12V, TP53 deletion), 10% FCS, 10 nM recombinant MIF, 100 nM antibody; versus untreated or control antibody. As to the method:
(§4) FIG. 1: Anti-oxMIF inhibits phosphorylation of ERK and AKT in vitro. […] Cell lysates were separated by SDS-PAGE and blotted on nitrocellulose membranes, and the phosphorylated forms of ERK1/2 (FIG. 1A) or AKT (FIG. 1B) were visualized with phosphor-specific antisera. The total levels of the enzymes were determined by using antisera that recognized all forms of the enzymes and were visualized as a loading control.
(§5) Cell lysates were separated by SDS-PAGE and blotted on nitrocellulose membranes, and the phosphorylated forms of ERK1/2 (FIG. 1A) or AKT (FIG. 1B) were visualized with phosphor-specific antisera. The total levels of the enzymes were determined by using antisera that recognized all forms of the enzymes and were visualized as a loading control. […] Mutant K-ras protein activates ERK1/2 and AKT through a cascade that leads to ERK1/2 and AKT phosphorylation.

The test system of a further test is AKT. Description: Phosphorylation of AKT in starved PC3 cells (western blot). It is filed as cell-based, human. The conditions noted are these: starved PC3 cells (K-ras G12V, TP53 deletion), 10% FCS, 10 nM recombinant MIF, 100 nM antibody; versus untreated or control antibody. The procedure: as §4, §5
(Immunoblotting shows a protein as a band on a membrane.)

Test [1] relates to IGROV-1 human ovarian cancer cells. Description: Xenograft model of ovarian cancer, IGROV-1 luciferase cells, bioluminescence. It is filed as in vivo, Nude mice. The note with it: 60 mg/kg i.p. every other day from week 4; measured in 4th, 5th and 6th week; IGROV-1 (KRAS wild-type, p53 Y126C). As to the method: FIG. 2: Tumor measurements in a xenograft model of ovarian cancer based on inhibition of IGROV-1 cells stably expressing the luciferase reporter gene. IGROV-1 human ovarian cancer cells (containing a wild-type KRAS gene, and containing a mutant TP53 gene encoding a p53 Y126C mutation) stably expressing the luciferase reporter gene were implanted on day 0. […] The treatment was carried out every other day. In the 4th, 5th and 6th week after injection of the tumor cells, the tumors were assessed by measuring luciferase activity (total flux in photons per second, p/s) (FIG. 2B).
In order to further confirm the effects of anti-MIF antibodies in the treatment of cancers containing mutations of TP53, a xenograft model of ovarian cancer based on inhibition of IGROV-1 human ovarian cancer cells (containing a wild-type KRAS gene, and containing a mutant TP53 gene encoding a p53 Y126C mutation) stably expressing the luciferase reporter gene was used. Nude mice were injected i.p. with 1×10^7 IGROV-1 luciferase cells. Prior to start of the treatment protocol, animals were assessed for equal tumor burden and randomized into the respective treatment arms.
Measuring luciferase activity: At different time points following cancer cells injection or antibody treatment, tumor growth and spread were monitored by Bioluminescent Assay. […]

Test [2] concerns Human prostate adenocarcinoma PC3 cells. Description: PC3 prostate cancer xenograft, tumor volume. The format is in vivo, Mf1 nude mice. The note with it: 5 or 15 mg/kg intraperitoneally every other day; compared to the control antibody. The procedure: (§6) FIG. 3: Tumor volume (FIG. 3D) and intratumoral levels of the cytokines, II-6 (FIG. 3B), II-8 (FIG. 3A) and GRO-alpha (FIG. 3C) were analyzed for tumors from a PC3 prostate cancer xenograft in vivo model after treatment with the indicated antibodies. The data shown represent the mean.
(§7) Human prostate adenocarcinoma PC3 cells (containing a mutant KRAS gene encoding a K-ras G12V mutation, and containing a deletion mutation in the TP53 gene) were harvested from exponentially growing cultures, mixed with growth factor-depleted matrigel and inoculated subcutaneously into the right flank of Mf1 nude mice (2×10^6 cells in 0.25 mL Matrigel/mouse, n=10/group). On the next day the antibody treatment was started (5 or 15 mg/kg intraperitoneally every other day). On day 7 after cell injection, the size of tumor xenograft was started to be measured and volume was calculated using the formula V=0.5 x a x b^2 (where “a” is the longest diameter; “b” is the shortest diameter. After termination of the experiment, tumors were excised, flash frozen and homogenized in lysis buffer. Cleared lysates were analyzed by multiplex immunoassays.

The subject of the next test is II-8. Description: PC3 prostate cancer xenograft, intratumoral II-8 by multiplex immunoassay. The conditions noted are these: 5 or 15 mg/kg intraperitoneally every other day; tumor lysates. The format is in vivo, Mf1 nude mice. The procedure: as §6, §7
The next test deals with II-6. Description: PC3 prostate cancer xenograft, intratumoral II-6 by multiplex immunoassay. The format is in vivo, Mf1 nude mice. The conditions noted are these: 5 or 15 mg/kg intraperitoneally every other day; tumor lysates. As to the method:
as §6, §7

The test system of a further test is GRO-alpha. Description: PC3 prostate cancer xenograft, intratumoral GRO-alpha by multiplex immunoassay. The format is in vivo, Mf1 nude mice. The conditions noted are these: 5 or 15 mg/kg intraperitoneally every other day; tumor lysates. The procedure:
as §6, §7

B1: RAM0: anti-MIF (oxMIF) antibody, heavy chain SEQ ID NO: 9, light chain SEQ ID NO: 10; DSM 25864 and DSM 25863 (antibody)
heavy: EVQLLESGGGLVQPGGSLRLSCAASGFTFSWYAMDWVRQAPGKGLEWVSGIYPSGGRTKYADSVKGRFTISRDNSKNTLYLQMNSLRAEDTAVYYCARVNVIAVAGTGYYYYGMDVWGQGTTVTVSSASTKGPSVFPLAPSSKSTSGGTAALGCLVKDYFPEPVTVSWNSGALTSGVHTFPAVLQSSGLYSLSSVVTVPSSSLGTQTYICNVNHKPSNTKVDKRV[not shown - human IgG1 Fc]
light: DIQMTQSPGTLSLSPGERATLSCRASQGVSSSSLAWYQQKPGQAPRLLIYGTSSRATGIPDRFSGSASGTDFTLTISRLQPEDFAVYYCQQYGRSLTFGGGTKVEIKRTVAAPSVFIFPPSDEQLKSGTASVVCLLNNFYPREAKVQWKVDNALQSGNSQESVTEQDSKDSTYSLSSTLTLSKADYEKHKVYACEVTHQGLSSPVTKSFNRGEC
modifications: RAM0hc; RAM0lc
As to B1, in the test with oxMIF, the “binding to oxMIF” value is on record as “specifically bind to oxMIF”. Further, the “binding to redMIF” value in the test with redMIF is listed as “incapable of binding to redMIF”. The “phosphorylation of ERK1/2” value in the test with ERK1/2 is on record as “reduced the phosphorylation”. Also, the “phosphorylation of AKT” value in the test with AKT is on record as “reduced the phosphorylation”. For the same molecule, the “luciferase activity (total flux) of tumors” value in [1] is given as “reduction in luciferase activity”. Moreover, the tumor volume entry in [2] is reported as “decreased”. Further, the “intratumoral level of II-8” value in the test on II-8 was “reduced”. In addition, the “intratumoral level of II-6” value with II-6 was “reduced”. Also, in the test with GRO-alpha, the “intratumoral level of GRO-alpha” value is on record as “reduced”.

B2: RAM9: anti-MIF (oxMIF) antibody, heavy chain SEQ ID NO: 11, light chain SEQ ID NO: 12; DSM 25860 and DSM 25859 (antibody)
heavy: EVQLLESGGGLVQPGGSLRLSCAASGFTFSIYSMNWVRQAPGKGLEWVSSIGSSGGTTYYADSVKGRFTISRDNSKNTLYLQMNSLRAEDTAVYYCAGSQWLYGMDVWGQGTTVTVSSASTKGPSVFPLAPSSKSTSGGTAALGCLVKDYFPEPVTVSWNSGALTSGVHTFPAVLQSSGLYSLSSVVTVPSSSLGTQTYICNVNHKPSNTKVDKRV[not shown - human IgG1 Fc]
light: DIQMTQSPSSLSASVGDRVTITCRSSQRIMTYLNWYQQKPGKAPKLLIFVASHSQSGVPSRFRGSGSETDFTLTISGLQPEDSATYYCQQSFWTPLTFGGGTKVEIKRTVAAPSVFIFPPSDEQLKSGTASVVCLLNNFYPREAKVQWKVDNALQSGNSQESVTEQDSKDSTYSLSSTLTLSKADYEKHKVYACEVTHQGLSSPVTKSFNRGEC
modifications: RAM9hc; RAM9lc
Take B2: the “binding to oxMIF” value with oxMIF was “specifically bind to oxMIF”. The “binding to redMIF” value with redMIF is given as “incapable of binding to redMIF”. For the same molecule, the “phosphorylation of ERK1/2” value with ERK1/2 is “reduced the phosphorylation”. Also, the “phosphorylation of AKT” value with AKT was “reduced the phosphorylation”. Besides, in [1], the “luciferase activity (total flux) of tumors” value is listed as “reduction in luciferase activity”. The tumor volume entry in test [2] is “decreased”. The “intratumoral level of II-8” value in the test on II-8 is given as “reduced”. For the same molecule, in the test on II-6, the “intratumoral level of II-6” value was “reduced”. The “intratumoral level of GRO-alpha” value in the test on GRO-alpha is given as “reduced”.
